The full ranking holds about 33,000 sequences; the median of “E-score (-0.5 to 0.5)” is about -0.054, and the highest 2% start at about 0.35. Some of the results follow.
target: T1, Stb5 (UniProt P38699); assay: PBM E-score (8-mer binding enrichment) (E-score (-0.5 to 0.5)); higher = stronger / more preferred TF binding; most listed sequences are background and not binding sites; settings: protein concentration: 200 nM; construct: GST-full length
T1 sequence: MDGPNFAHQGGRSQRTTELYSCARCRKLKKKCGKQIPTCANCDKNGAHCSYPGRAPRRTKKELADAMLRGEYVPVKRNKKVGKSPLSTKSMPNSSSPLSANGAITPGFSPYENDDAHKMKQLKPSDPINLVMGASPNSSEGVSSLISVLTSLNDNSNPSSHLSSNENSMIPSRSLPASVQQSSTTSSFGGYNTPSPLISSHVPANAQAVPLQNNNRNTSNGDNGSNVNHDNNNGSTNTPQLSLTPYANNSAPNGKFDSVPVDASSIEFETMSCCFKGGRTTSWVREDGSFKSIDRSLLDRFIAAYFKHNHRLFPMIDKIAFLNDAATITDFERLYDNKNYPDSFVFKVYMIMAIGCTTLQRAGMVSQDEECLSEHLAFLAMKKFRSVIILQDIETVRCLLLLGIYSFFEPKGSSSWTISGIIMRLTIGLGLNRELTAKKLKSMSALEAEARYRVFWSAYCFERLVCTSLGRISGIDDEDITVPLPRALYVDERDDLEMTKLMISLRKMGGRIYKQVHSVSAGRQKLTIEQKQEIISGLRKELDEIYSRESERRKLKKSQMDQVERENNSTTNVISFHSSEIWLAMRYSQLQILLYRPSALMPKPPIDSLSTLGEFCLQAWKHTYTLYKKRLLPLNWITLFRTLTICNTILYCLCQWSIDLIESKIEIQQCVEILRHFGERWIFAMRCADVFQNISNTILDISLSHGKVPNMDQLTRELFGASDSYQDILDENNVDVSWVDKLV
Method in brief: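 Yeast transcription factors carrying a GST tag, as full-length proteins or DNA-binding domains, were produced by PURExpress in vitro transcription/translation. About 100-200 nM protein was applied to universal all-10-mer Agilent arrays, double-stranded by primer extension on fresh or once-stripped slides. Bound protein was detected with fluorescent anti-GST, and scans were normalised with masliner. The Universal PBM Analysis Suite gave each ungapped eight-base word, pooled with its reverse complement, an E-score, a modified Wilcoxon-Mann-Whitney statistic.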

Row | Sequence | PBM E-score
1 | CGAGGTGC | -0.146
2 | ACGTAAGC | -0.117
3 | AACGGAGT | 0.378
4 | ACGACGAC | -0.0926
5 | CAGTGCGC | -0.135
6 | ATGTGTAA | -0.0845
7 | GCTCGTCC | -0.131
8 | GAACATCA | -0.0947
9 | AGGCTATG | -0.315
10 | GAGTTAAC | -0.0773
11 | CCAGGCGC | -0.0205
12 | CGTGATTA | 0.107
13 | CTGGAACC | -0.175
14 | AGTCAGAT | -0.0492
15 | AACCAGCT | -0.363
16 | CTTAACGC | -0.0225
17 | ACCCCAGG | -0.186
18 | CGTTGACC | 0.012
19 | CAGCTGGC | -0.0326
20 | CCAATGGA | -0.129
21 | GAAGCATC | -0.123
22 | AAGGAACG | 0.0058
23 | ATCATACG | 0.00538
24 | AGCCGCCG | 0.215
25 | AACACCTG | 0.179

Row | Sequence | PBM E-score
26 | ATACTGAA | -0.141
27 | CATACTGG | -0.062
28 | GTTCTGTA | -0.123
29 | ATACGAGC | -0.0505
30 | AGAACATA | 0.195
31 | ACTTCAGG | 0.0129
32 | TTCCCAAA | -0.154
33 | CAACGCCA | -0.196
34 | CATGCTGA | -0.188
35 | GCCCTATA | 0.12
36 | ATCCGGCC | 0.255
37 | CTTGACAC | -0.0634
38 | ACGTGCGC | 0.116
39 | TAAAAAGA | 0.046
40 | ACATTATG | -0.0318
41 | AGGTGTGC | -0.316
42 | AGCCTTAG | -0.304
43 | GATTGAAA | 0.0395
44 | CCTCAGAG | -0.148
45 | CCCGTGCA | 0.209
46 | TACGCGCA | -0.0683
47 | AATACTCA | -0.0587
48 | ACGACAGT | -0.193
49 | GTCCCAGA | -0.213
50 | CGAACATC | 0.105

Row | Sequence | PBM E-score
51 | AGTCTGGC | -0.236
52 | AAGGCTGG | -0.463
53 | CCCAAAAG | -0.069
54 | CTCACGAC | -0.179
55 | AGTGGAGA | -0.16
56 | ATAGGGGG | -0.286
57 | ATAGTGGC | 0.144
58 | GCTTATAA | 0.0966
59 | ACCGCAGA | 0.138
60 | TCTCGAGA | -0.143
61 | AGATCAAT | -0.106
62 | AGGTCTAT | -0.21
63 | CGACGCTA | 0.0289
64 | CTATATGC | -0.00858
65 | CCGATAAG | 0.199
66 | GATCTAGC | -0.12
67 | AATTTGAA | 0.0577
68 | AGCCGAGG | -0.00403
69 | CTAGTATC | -0.0731
70 | ACATGTTA | -0.173
71 | AACATACT | -0.157
72 | TAACACCA | 0.279
73 | CATAAGCA | -0.0101
74 | AGACAATC | -0.137
75 | AAAGCTCA | -0.28

Row | Sequence | PBM E-score
76 | CTTAACAA | -0.0444
77 | GAAACCCA | 0.0284
78 | AGTCCCGG | 0.331
79 | ATCTGTTG | -0.254
80 | TGAGACCA | -0.326
81 | CACGTTAA | -0.156
82 | AGCTGCGG | 0.277
83 | GCGCTATA | 0.099
84 | ACAGATCG | -0.083
85 | CTGCACGC | -0.228
86 | AAGCCTAG | -0.229
87 | CTAGGACC | 0.116
88 | AGTAGAGA | -0.0933
89 | CCCGACAA | 0.328
90 | CTCGGTAC | 0.183
91 | TACCGGAA | 0.262
92 | CCCGCGTA | 0.155
93 | ACAATGGG | 0.00938
94 | GCGCTCAC | -0.187
95 | AGTATAAA | 0.149
96 | CGTCTGTA | -0.0187
97 | AGGATGAA | -0.147
98 | ATGGGCAC | -0.112
99 | GAGCGGGC | 0.289
100 | CATTTGAC | -0.0118

Row | Sequence | PBM E-score
101 | GTAGGACA | 0.0831
102 | CCGACGGA | 0.394
103 | ACGGCAAT | 0.377
104 | CTTGAGCA | -0.221
105 | CAGGCTCG | -0.038
106 | TCACGTGA | -0.139
107 | CTAACTAC | -0.0905
108 | GTCCCAAA | -0.0253
109 | GCGACTCA | -0.156
110 | GGAACAAA | 0.0003
111 | GAAAATTA | -0.0554
112 | ACCAGGAC | -0.0538
113 | ACAAGAAA | 0.00862
114 | AGAATGAG | -0.276
115 | AGGCGAGA | -0.34
116 | CGTAGGAC | 0.103
117 | CCTTTCTA | -0.0388
118 | GACACAAA | 0.0997
119 | CTCGTGCA | -0.111
120 | CGGAATCC | 0.0455
121 | CGCGATAC | 0.0359
122 | AATCCATA | -0.132
123 | GCTTACTA | -0.111
124 | ACAACGGG | 0.152
125 | CCACGTCG | 0.0285

Row | Sequence | PBM E-score
126 | AGAATCAC | 0.128
127 | CCAGGCTA | -0.123
128 | CGACTAGA | 0.0592
129 | ACTCACCG | 0.202
130 | GAACGGAC | 0.331
131 | AAGCATTG | -0.262
132 | GTGGAGCA | -0.144
133 | AACAAGTG | -0.125
134 | AAGGGTAC | -0.197
135 | AGCCTTAA | -0.0403
136 | AGGAGATC | -0.188
137 | AATCTTCA | -0.128
138 | AGGAAGCC | -0.14
139 | CGACCCAC | 0.12
140 | CAGCACTA | -0.218
141 | AGTATTCC | -0.088
142 | GCTCCGAA | 0.238
143 | ACACTGAT | -0.286
144 | GTGTTTGA | -0.0362
145 | GGAGCCGA | 0.114
146 | CCCAGTTC | -0.104
147 | AAGTATTG | -0.0823
148 | TATTTGCA | -0.229
149 | TGTCCACA | -0.18
150 | CAAAGTCA | -0.141

Row | Sequence | PBM E-score
151 | AGATGCAC | -0.0793
152 | CTATTCGA | -0.103
153 | CTTGCCGC | 0.149
154 | GAAGCTTC | 0.00696
155 | GGTTAGCA | 0.00475
156 | CCGAGGTA | 0.0379
157 | GGCATCCA | -0.158
158 | GAATTCAA | -0.0423
159 | AAAAATGC | 0.154
160 | ATTACACC | 0.327
161 | CTACGCAC | -0.128
162 | CGTTACAC | 0.115
163 | GCGTTTCA | -0.0705
164 | ACTGAAAG | 0.0167
165 | GGTGTCCA | 0.0299
166 | CCAGCGTA | 0.0135
167 | CCCTTGGA | -0.154
168 | AATCCGCG | 0.21
169 | CGATCGAA | 0.0626
170 | ATGGCGCA | 0.0395
171 | ACTATTTA | 0.0538
172 | AGCCGGGG | 0.165
173 | CACATAGC | 0.0703
174 | CCTACCCG | -0.0479
175 | GAGTAGTA | -0.126

Row | Sequence | PBM E-score
176 | CCAGTACC | 0.00859
177 | AGCTATGC | -0.217
178 | CAATGGCA | 0.022
179 | CATCTGAC | -0.135
180 | CTACTTAC | -0.238
181 | AACTATCC | 0.0181
182 | AATTCTGT | -0.095
183 | GGTGGGAC | 0.0449
184 | AACAATTA | 0.0355
185 | GCCGAACC | 0.176
186 | CAAACCTA | -0.179
187 | AGCATTCC | -0.12
188 | CAACATAG | -0.0327
189 | CTTTTTTA | -0.116
190 | TTACCGAA | 0.187
191 | ACCTACTA | 0.0486
192 | ACTGTGAG | -0.139
193 | GCTTACCA | 0.0405
194 | CTATCACA | 0.0614
195 | TGATATCA | -0.0315
196 | ATAGGATC | 0.0278
197 | ATTATGCG | 0.063
198 | GCGAACAA | -0.182
199 | CCGGGGTA | 0.268
200 | CCAGGGGG | -0.22

Row | Sequence | PBM E-score
201 | ACTGGCCC | -0.129
202 | AATGTGGG | 0.0435
203 | AAGAGACA | -0.258
204 | ACCGCCCA | 0.33
205 | AACAGGGC | -0.081
206 | GCGTCTCA | -0.0552
207 | AACCAAAG | -0.258
208 | CCACGGCC | 0.176
209 | CTCAAATC | -0.136
210 | CGTTTGGA | -0.118
211 | CTTTGGCC | 0.0132
212 | TAACCGGA | 0.271
213 | CACTACAC | -0.13
214 | AAGCTGCG | -0.0216
215 | CGGGCATA | 0.419
216 | AATGAGAC | -0.1
217 | TCAACCAA | -0.16
218 | GTGGTTCA | -0.13
219 | ACCTTGAT | 0.0356

Reference: the supplement of paper PMC3334620
